Reference: PubChem BioAssay AID1346428 (National Center for Advancing Translational Sciences (NCATS), 2018)
Screen size: about 48,000 compounds; about 1,200 (2.5%) were called active. Another 2% or so got no clear call; they are omitted.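 How the source made its calls: active means activation of at least 60% and not above a set upper limit (about 1 call in 100 departs from these limits); inconclusive means activation of 40% to 60%, or above that upper limit; inactive means activation under 40%.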 The list shows a part of the results.

target: Probable G-protein coupled receptor 32 (Homo sapiens) (UniProt O75388); assay: qHTS for Agonists of Human Resolvin D1 Receptor DRV1; conditions: CHO-K1 GPR32 beta-arrestin PathHunter luminescence, 90 min; at 76.9 µM; active compounds read high; zero percent set by DMSO-only wells; further: 0% is about no effect
Procedure, shortened: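 Agonism was scored by beta-Gal fragment complementation (chemiluminescent read, 1 h detection at ambient temperature) reporting beta-arrestin binding to GPR32 in engineered CHO-K1 cells. Compound treatment lasted 90 min at 37 C, normalized to a DMSO basal control.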

UniProt O75388, sequence (O75388 whole entry, looked up, the tested form may be a part): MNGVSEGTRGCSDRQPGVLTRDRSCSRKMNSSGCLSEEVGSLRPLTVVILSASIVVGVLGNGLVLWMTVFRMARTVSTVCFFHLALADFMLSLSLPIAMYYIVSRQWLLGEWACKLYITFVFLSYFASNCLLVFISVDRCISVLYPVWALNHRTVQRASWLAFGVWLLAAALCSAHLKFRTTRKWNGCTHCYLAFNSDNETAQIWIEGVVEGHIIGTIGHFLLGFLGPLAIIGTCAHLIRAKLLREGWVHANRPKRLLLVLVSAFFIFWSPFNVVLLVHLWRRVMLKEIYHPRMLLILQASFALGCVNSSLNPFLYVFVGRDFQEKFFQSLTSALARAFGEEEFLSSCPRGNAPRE

SMILES | activation
CC(=O)N1c2ccc(S(=O)(=O)N3CCCCCC3)cc2CC1C(=O)NCc1ccccc1 (centres undefined) | inactive: -0.748%
COc1cc2ncnc(Nc3cccc(Cl)c3)c2cc1OC | inactive: 0.813%
NNc1nnc(NN)c2ccccc12 | inactive: 9.57%
COc1cc2c(cc1OC)C(COc1ccc3c(C)cc(=O)oc3c1)N(C(=O)c1cccc(OC)c1OC)CC2 (centres undefined) | inactive: -11.2%
COCCn1c(C)cc(O)c(C(c2ccccc2)N2CCN(CCO)CC2)c1=O (centres undefined) | inactive: 1.84%
CCOc1ccc(NC(=O)N2CCC(CN3CCCCCC3)CC2)cc1 | inactive: -10.2%
Cc1cccc(N2CCN(C(=O)c3ccc4c(c3)c(C)c(C)n4C)CC2)c1C | inactive: -0.203%
Cc1cc(C)cc(NC(=O)CSc2oc(-c3ccco3)nc2S(=O)(=O)c2ccccc2)c1 | inactive: -20.8%
O=C(Nc1ccccc1OCc1cc(=O)n2ccccc2n1)c1cccc(Br)c1 | inactive: -9.85%
COc1ccc2c(c1)c1c(c(=O)n(Cc3ccccc3)c(=O)n1CC(=O)Nc1cc(C)cc(C)c1)n2C | inactive: 13.6%
Clc1ccc(OCc2nc(-c3ccc(-n4cccc4)cc3)no2)cc1 | inactive: -4.17%
Cc1ccc(Cl)cc1NC(=O)CCCn1c(=O)c2cccn2c2ccccc21 | inactive: -13.7%
Cc1ccc2c(n1)sc1c(=O)n(-c3cccc(C(F)(F)F)c3)nnc12 | inactive: 42.2%
COc1ccc(-c2nc3scc(CCNS(=O)(=O)c4cc(F)ccc4OC)n3n2)cc1OC | inactive: -19.9%
CN(C(=O)CSc1nnc(-c2ccc([N+](=O)[O-])cc2)o1)C1CCCCC1 | inactive: 20.4%
Cc1ccc(CN2CCSc3ccc(C(=O)Nc4cc(C)cc(C)c4)cc32)cc1 | inactive: -12.9%
CC(=O)N1CCc2c(sc3nc(SCC(N)=O)n(-c4ccc(F)c(Cl)c4)c(=O)c23)C1 | inactive: -9.95%
Cc1ccc(CCNC(=O)CCCn2c(=O)c3ccccc3n(CC(=O)Nc3cc(Cl)ccc3C)c2=O)cc1 | inactive: -12.5%
COc1ccc(CCNC(=O)c2ccc3c(c2)sc2nc(-c4ccc(C)cc4)cn23)cc1OC | inactive: -3.59%
CCOc1ccc(Nc2c(S(=O)(=O)c3ccc(C)cc3)cnc3cc(OC)c(OC)cc23)cc1 | inactive: -45%
COc1ccccc1NC(=O)CSC1=Nc2ccccc2C2=NC(CC(=O)NCCc3ccccc3)C(=O)N12 (centres undefined) | inactive: -9.28%

SMILES | activation
Cc1ccc(NC(=O)C2CCN(S(=O)(=O)c3ccc4c(c3)CCCC(=O)N4)CC2)c(Cl)c1 | inactive: 14.8%
COc1cc(NS(=O)(=O)c2ccc3c(c2)CC(=O)N3)cc(OC)c1OC | inactive: -2.37%
CCc1ccccc1NC(=O)Cn1nnc(-c2nc(-c3ccncc3)no2)c1N | inactive: -17.6%
O=C(NC1(C(F)(F)F)C(=O)Nc2c1c(=O)[nH]c(=O)n2CCc1ccccc1)c1ccc(Cl)cc1 (centres undefined) | inactive: -14.6%
O=C(NCc1ccccc1Cl)c1ccc2c(c1)nnn2C1CCCC1 | inactive: -10.3%
Cc1ccc(NC(=O)c2c(C)oc3ncn(C)c(=O)c23)cc1F | inactive: -9.36%
COc1cccc2c1Oc1ncccc1N(c1ccc(C(=O)NCc3ccccc3C)s1)C2 | inactive: -17.2%
CCOc1ccc(NC(=O)CN2CCN(CC(=O)Nc3ccc(N(CC)CC)cc3)CC2)cc1 | inactive: -12.7%
COc1cc(NS(=O)(=O)c2ccc3[nH]c(=O)[nH]c3c2)cc(OC)c1 | inactive: 7.33%
CCCCC(=O)Nc1ccc2nc(SCC(=O)N3CCOCC3)sc2c1 | inactive: -11%
O=C(CCCc1ccccc1)NC1CC(=O)N(c2ccc(Cl)cc2)C1 (centres undefined) | inactive: -6.12%
CC1=C(c2ccc(C(C)C)cc2)S(=O)(=O)N=C1N1CCN(c2ccc(F)cc2)CC1 | inactive: -13.8%
Cc1cccc(-c2nc3c4ccccc4nc(N4CCN(c5ccc(F)cc5)CC4)n3n2)c1 | inactive: 12%
Cc1ccc(Cl)cc1NC(=O)c1ccc(NC(=O)N2CCSc3ncccc32)cc1 | inactive: -5.77%
Cc1ccc(OCC(=O)Nc2nnc(SCc3cc(=O)c4ccccc4[nH]3)s2)cc1C | inactive: 33.7%
COc1ccccc1C(=O)n1nc(-c2cccnc2)nc1NCc1ccccc1 | inactive: -22.4%
COc1ccc(NC(=O)c2coc(=O)c3ccccc23)cc1OC | inactive: -10.6%
CC1=Nc2cc(C(=O)NC3CCCCC3)ccc2Sc2ccc(Cl)cc21 | inactive: -15.4%
CCCOc1ccc(C2C(=O)N(C3CCCCC3)CC(=O)N2CCc2ccccc2)cc1OC (centres undefined) | inactive: 4.6%
CCOC(=O)c1cccc(NS(=O)(=O)c2cc(-c3cnc(C)o3)ccc2OC)c1 | inactive: 11%
CN(C)C(=O)c1ccc(NC(=O)Cn2nc(-c3ccccc3)c3ccccc3c2=O)cc1 | inactive: 12%

SMILES | activation
CCCCCNC(=O)c1cc2c(=O)n3ccccc3nc2n1C | inactive: -9.37%
Cc1cccc(NC(=O)c2c(NC(=O)c3cccs3)sc3c2CCC(C)C3)c1 (centres undefined) | inactive: 19.1%
CCCCNC(=O)C(CC)Sc1nnc(-c2ccc(F)cc2)c(-c2ccc(F)cc2)n1 (centres undefined) | inactive: -22.3%
CCOC(=O)c1c(NC(=O)COc2cc(C)ccc2C(C)C)sc2c1CCCC2 | inactive: -3.99%
COc1ccccc1N1CCN(C(CNC(=O)C(=O)NCCN(C)C)c2cccnc2)CC1 (centres undefined) | inactive: 5.99%
CC(=O)Nc1ccc(OCc2cc(=O)n3ccccc3n2)cc1 | inactive: -6.19%
COc1cccc(CN2CCc3nc(Nc4ccc5c(c4)OCCO5)ncc3C2)c1OC | active: 85.7%
Cc1ccc(-c2noc(-c3ccccc3NC(=O)C3CC(=O)N(c4cccc(C)c4)C3)n2)cc1 (centres undefined) | inactive: 5.63%
CCOc1ccc(NC(=O)c2cc(=O)c3cc(CC)ccc3o2)cc1 | inactive: 39%
Cc1cccc(NC(=O)CSc2nc(=O)n(Cc3ccncc3)c3c2CCC3)c1C | inactive: -9.21%
Oc1ccc(/C=C/c2nc(-c3ccccc3O)n(-c3ccccc3)n2)c(O)c1 | inactive: -12.1%
CCOc1ccc(NC(=O)CSc2nc(-c3cccs3)cc(C(F)(F)F)c2C#N)cc1 | inactive: 6.27%
CCc1ccc(C2=C(C)C(N3CCC(C(=O)Nc4cccc(OC)c4)CC3)=NS2(=O)=O)cc1 | inactive: -12.6%
COc1cccc(CNC(=O)C2CCN(S(=O)(=O)c3ccc4c(ccn4C)c3)CC2)c1 | inactive: -20.2%
COc1ccc(-c2cn3cccnc3n2)cc1NC(=O)c1c(F)cccc1F | inactive: -9.55%
CSc1ccc(C2c3[nH]c4ccccc4c3CCN2C(=O)CCc2ccccc2)cc1 (centres undefined) | inactive: -29.2%
COc1cc(Cl)c(C)cc1NC(=O)CCn1c(=O)c2cccn2c2cccnc21 | inactive: -20.2%
Cc1ccc(-n2nc3c(=O)n(CCCC(=O)NCCc4ccccc4)nc(C)c3c2C)cc1 | inactive: -15%
CC(C)c1nc2ccc(C(=O)NCc3ccc(N(C)C)cc3)cc2o1 | inactive: -9.47%
COc1ccc(C)cc1Nc1nc2ccccc2c2nnc(C)n12 | inactive: 9.83%
Cc1cccc(CCNC(=O)CCS(=O)(=O)c2cc3c(cc2Cl)NC(=O)CO3)c1 | inactive: -13.8%

SMILES | activation
Cc1cccc(NC(=O)CSc2nc3c(oc4ccccc43)c(=O)n2Cc2ccco2)c1 | inactive: -20.2%
CCN1CCN(C(c2cccc(F)c2)c2c(O)cc(C)n(CCOC)c2=O)CC1 (centres undefined) | inactive: -10.5%
COc1ccc(Cl)cc1NC(=O)c1cc(S(=O)(=O)N2CCC(C)CC2)cn1C | inactive: -5.05%
CCc1nc2cccnc2n1-c1ccc(CC(=O)Nc2ccccc2Cl)cc1 | inactive: -5.34%
CCOc1ccc(CNC(=O)CCC(=O)N2CC3CCCN3c3ccccc32)cc1 (centres undefined) | inactive: -31.2%
CCOC(=O)c1c(N)n(-c2ccccc2CC)c2nc3ccccc3nc12 | inactive: -2.42%
COc1ccccc1-c1noc(CSc2nnc(Cc3ccccc3)n2-c2ccc(C)c(C)c2)n1 | inactive: -29.2%
Cc1ccc(C)n1-c1nnc(N2CCC(C(=O)NCc3ccc(F)cc3)CC2)s1 | inactive: -25%
CC(C)C(=O)Nc1ccc2nc(SCC(=O)N3CCOCC3)sc2c1 | inactive: -5.18%
Cc1ccc(N2CC(c3nnc(NC(=O)c4ccco4)s3)CC2=O)cc1Cl (centres undefined) | inactive: -11.8%
O=S(=O)(c1ccc(Br)cc1)c1nnn2c1nc(NC1CCCCCC1)c1sccc12 | inactive: -4.6%
CCc1nn(CC(=O)NCCC(C)C)c(=O)c2cc3occc3n12 | inactive: 10.7%
CC1(C)S[C@@H]2[C@H](NC(=O)[C@H](N)c3ccccc3)C(=O)N2[C@H]1C(=O)O | inactive: 0.246%
CCn1c(C)c(C2N3CC4(C)CN2CC(CC)(C3)C4=O)c2ccccc21 (centres undefined) | inactive: -10.5%
COc1ccc(NS(=O)(=O)c2ccc3c(c2)C(C(C)C)C(=O)N3)cc1 (centres undefined) | inactive: 25.3%
Cc1ccc(CNC(=O)CSc2ncc(S(=O)(=O)c3ccc(Br)cc3)c(=O)[nH]2)cc1 | inactive: -7.72%
Nc1c(C(=O)Nc2ccccc2Cl)c2ccccn2c1C(=O)c1ccc(Cl)cc1 | inactive: 27.2%
COc1ccc(NC(=O)CSc2nc3c([nH]c4ccccc43)c(=O)n2C)cc1 | inactive: -9.07%
COC(=O)c1sccc1S(=O)(=O)N(CC(=O)NCc1ccccc1)c1ccccc1 | inactive: -4.5%
Cc1ccc(CNC(=O)C(=O)NCC(c2cccs2)S(=O)(=O)c2ccc(C)cc2)cc1 (centres undefined) | inactive: -1.53%
Cc1c(C(=O)N2CCC(C)CC2)c(S(=O)(=O)NCc2ccccc2)c(C)n1C | inactive: -14%
